# Laboratory results: PubChem BioAssay AID651740 (Broad Institute, 2012)
# Among all 5,600 compounds or so, about 1,200 (21%) were called active. The shares of active, inactive and inconclusive entries below differ from those in the screen.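 How the source made its calls: active means mean inhibition above about 95%, with at least 55% of replicates also reaching it (limit read from the data); inconclusive means meets just one of the two conditions; inactive means meets neither condition.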
# Assay: Trypanosoma cruzi growth blockers in host fibroblasts – NIH3T3 host cells, beta-gal parasites, cherry-pick, set 2, confirmation (AID 651740);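 further: plate controls were neutral control median for no effect and positive control median for full effect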
# Settings: T. cruzi beta-gal in NIH3T3, GalScreen luminescence, 90 h; at 2.09 µM; active compounds read high
# Summary of the method: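 Compound – single point, 100 nL in DMSO · Material – NIH/3T3 host cells with beta-gal T. cruzi Tulahuen C4 · Medium – DMEM plus 2% fetal bovine serum, 1% PSG · Technique – GalScreen lysis and luminescent beta-gal signal · Timing – ≥90 h co-culture with compound, 60 min detection reagent · Also added – 5000 trypomastigotes per well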
row,Structure (SMILES),inhibition
1,CC(C)CC#Cc1ccc2c(c1)O[C@H](CN(C)C(=O)c1cccc(F)c1)[C@H](C)CN([C@H](C)CO)S2(=O)=O,active: 108%
2,COc1ccc(S(=O)(=O)N(C)C[C@H]2OCCCC[C@@H](C)Oc3ccc(NS(=O)(=O)c4ccc(F)cc4)cc3C(=O)N([C@H](C)CO)C[C@H]2C)cc1,inactive: 75%
3,CC(C)CC#Cc1ccc2c(c1)O[C@H](CN(C)Cc1ccccc1)[C@H](C)CN([C@H](C)CO)S2(=O)=O,active: 109%
4,OC[C@H]1Nc2ccc(C#Cc3ccccc3)cc2[C@@H]2[C@H]1CCN2Cc1nccs1,active: 101%
5,CCCN(C)C[C@@H]1Oc2cc(C#Cc3ccc(F)cc3)ccc2S(=O)(=O)N([C@@H](C)CO)C[C@@H]1C,inconclusive: 98.3%
6,Cc1ccc(S(=O)(=O)Nc2ccc3c(c2)C(=O)N([C@H](C)CO)C[C@@H](C)[C@@H](CN(C)Cc2ccc4c(c2)OCO4)OCCCC[C@@H](C)O3)cc1,inactive: 81.3%
7,C[C@@H]1CN([C@@H](C)CO)C(=O)c2cc(NC(=O)Nc3ccc(F)cc3)ccc2O[C@@H](C)CCCCO[C@@H]1CN(C)CC1CCCCC1,inactive: 42.7%
8,C[C@H](CO)N1C[C@H](C)[C@@H](CN(C)S(=O)(=O)c2ccccc2)Oc2cc(-c3cccc(F)c3)ccc2S1(=O)=O,inactive: 56.5%
9,COCC(=O)Nc1ccc2c(c1)C(=O)N(C)C[C@H](OC)[C@H](C)CN(Cc1cc(F)ccc1F)[C@H](C)CO2,inactive: 10.6%
10,Cc1ccc(S(=O)(=O)N(C)C[C@@H]2Oc3cc(-c4cccc(F)c4)ccc3S(=O)(=O)N([C@@H](C)CO)C[C@@H]2C)cc1,inconclusive: 96.8%
11,COc1cccc(CN2CCCCN3[C@@H](CO)[C@@H](c4ccc(C#Cc5cccnc5)cc4)[C@@H]3C2)c1,inconclusive: 98.8%
12,C[C@@H]1CCCCO[C@H](CN(C)S(=O)(=O)c2ccc(Cl)cc2)[C@@H](C)CN([C@@H](C)CO)C(=O)c2cc(NC(=O)C3CCCCC3)ccc2O1,inconclusive: 97.6%
13,O=S(=O)(c1ccc(F)cc1)N1CCCCN2[C@H](C1)[C@@H](c1ccc(-c3ccccc3F)cc1)[C@@H]2CO,inactive: 65.5%
14,C[C@@H]1CN([C@H](C)CO)S(=O)(=O)c2ccc(C#CC3CCCC3)cc2O[C@H]1CN(C)Cc1cccnc1,inconclusive: 99%
15,C[C@@H]1CCCCO[C@H](CN(C)C(=O)Cc2ccccc2)[C@H](C)CN([C@H](C)CO)C(=O)c2cc(NC(=O)Nc3ccc(F)cc3)ccc2O1,active: 108%
16,CN(C)CC(=O)N1CCCCN2[C@@H](CO)[C@@H](c3ccc(/C=C/c4ccccc4)cc3)[C@@H]2C1,active: 113%
17,COc1ccc(NC(=O)N(C)C[C@@H]2Oc3ncc(-c4cccc(C(F)(F)F)c4)cc3C(=O)N([C@H](C)CO)C[C@@H]2C)cc1,inactive: 60.4%
18,Cc1ccc(S(=O)(=O)N(C)C[C@@H]2Oc3cc(C#CC4CCCC4)ccc3S(=O)(=O)N([C@H](C)CO)C[C@H]2C)cc1,inconclusive: 97.1%
19,CN(C)C(=O)c1ccc(-c2ccc([C@@H]3[C@H]4CN(C(=O)C5CCC5)CCCCN4[C@H]3CO)cc2)cc1,inactive: 44%

row,Structure (SMILES),inhibition
1,OC[C@@H]1[C@H](c2ccc(C#CC3CC3)cc2)[C@H]2CN(CCC(F)(F)F)CCCCN12,inconclusive: 96.2%
2,Cc1ccc(-c2ccc3c(c2)O[C@@H](CN(C)C(=O)C2CCCCC2)[C@H](C)CN([C@@H](C)CO)S3(=O)=O)cc1,inconclusive: 98.5%
3,COCC(=O)N1CCCCN2[C@@H](CO)[C@H](c3ccc(-c4ccc(OC)cc4)cc3)[C@@H]2C1,inactive: 51.9%
4,C[C@@H]1CN([C@@H](C)CO)S(=O)(=O)c2ccc(-c3ccccc3)cc2O[C@H]1CN(C)Cc1cccc(F)c1,inconclusive: 95.7%
5,COc1ccccc1S(=O)(=O)N(C)C[C@@H]1Oc2cc(/C=C/c3ccccc3)ccc2S(=O)(=O)N([C@H](C)CO)C[C@H]1C,active: 103%
6,Cc1ccc(-c2ccc([C@@H]3[C@@H](CO)N4CCCCN(C(=O)Nc5cccc(F)c5)C[C@@H]34)cc2)cc1,inconclusive: 96.8%
7,C[C@H](CO)N1C[C@H](C)[C@@H](CN(C)Cc2cccnc2)Oc2cc(C#CC3CCCC3)ccc2S1(=O)=O,active: 109%
8,COc1ccc(S(=O)(=O)Nc2ccc3c(c2)CC(=O)N([C@@H](C)CO)C[C@H](C)[C@H](CN(C)Cc2ccccc2)O3)cc1,inactive: 27.2%
9,C[C@H](CO)N1C[C@H](C)[C@H](CN(C)S(=O)(=O)c2ccc(F)cc2)OCCCC[C@H](C)Oc2ccc(NS(=O)(=O)c3ccc(Cl)cc3)cc2C1=O,inconclusive: 96.8%
10,C[C@H]1CN([C@@H](C)CO)S(=O)(=O)c2ccc(C3=CCCC3)cc2O[C@@H]1CN(C)Cc1ccncc1,inconclusive: 97.8%
11,COc1ccc(NC(=O)N(C)C[C@@H]2Oc3ncc(C#Cc4ccc(C(F)(F)F)cc4)cc3C(=O)N([C@H](C)CO)C[C@@H]2C)cc1,inconclusive: 97.8%
12,COc1ccccc1-c1ccc2c(c1)O[C@H](CN(C)S(=O)(=O)c1ccc(C)cc1)[C@H](C)CN([C@@H](C)CO)S2(=O)=O,inconclusive: 95.7%
13,C[C@H]1CN([C@@H](C)CO)C(=O)c2ccccc2-c2ccccc2CO[C@@H]1CN(C)C(=O)Nc1ccnc(N2CCOCC2)c1,inconclusive: 96.1%
14,C[C@@H]1CCCCO[C@@H](CN(C)C(=O)C2CCCCC2)[C@H](C)CN([C@@H](C)CO)C(=O)c2cc(NC(=O)Nc3ccc(C(F)(F)F)cc3)ccc2O1,active: 108%
15,COc1ccc(NC(=O)N2CCCCN3[C@H](CO)[C@@H](c4ccc(-c5ccccc5C)cc4)[C@H]3C2)cc1,inactive: 79.4%
16,CO[C@@H]1CN(C)C(=O)c2cc(NC(=O)C3CCOCC3)ccc2OC[C@@H](C)N(CC2CC2)C[C@@H]1C,inactive: 10.2%
17,O=C(c1ccccn1)N1CC[C@@H]2[C@@H](CO)Nc3ccc(-c4ccccc4)cc3[C@@H]21,inactive: 86.1%
18,CCCC#Cc1ccc([C@H]2[C@@H](C#N)N(C(=O)C3CC3)[C@H]2CO)cc1,inconclusive: 96.8%
